From the supplement of paper PMC12217912
This is one part of the list. The full chains were built here from the parent and the listed change. Values near 0.05 are background.

B1: TEV protease; numbered along this chain (parent)
chain: MGESLFKGPRDYNPISSSICHLTNESDGHTTSLYGIGFGPFIITNKHLFRRNNGTLVVQSLHGVFKVKDTTTLQQHLVDGRDMIIIRMPKDFPPFPQKLKFREPQREERICLVTTNFQTKSMSSMVSDTSCTFPSGDGIFWKHWIQTKDGQCGSPLVSTRDGFIVGIHSASNFTNTNNYFTSVPKNFMELLTNQEAQQWVSGWRLNADSVLWGGHKVFMVKPEEPFQPVKEATQL

Variants of: B1
Test: raw area under fraction-flipped curve 0-4 h after induction (AUC4h, not background-subtracted), DNA-recorder readout of cleavage of the substrate (dimensionless); higher = more cleavage of the substrate by the protease variant
Conditions: temperature: 34 °C; time window: 0-4 h after rhamnose induction
Description: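 In vivo DNA recorder in E. coli TOP10(DE3) ΔrhaA at 34 °C. Each TEVp single-site mutant (parent TEVp 0) is paired with a single-site variant of the 7-mer TEVs (canonical ENLYFQ|S). The substrate sits between flexible linkers in a Bxb1-sfGFP-TEVs-SsrA fusion, so cleavage stabilises Bxb1 and speeds flipping of a recombination array, read by NGS. The value is the raw area under the fraction-flipped curve over 0-4 h after rhamnose induction (AUC4h), with ≥20 reads per time point. It is not background-subtracted; inactive controls average about 0.047.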
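Further: Bxb1 expression induced with 0.2% (w/v) L-rhamnose at OD600 near 0.5, cultures sampled hourly, flipped fraction per protease–substrate barcode pair counted by paired-end Illumina sequencing.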

Variant: K230T
- area with substrate EALYFQS: 0.136
- area with substrate ECLYFQS: 0.111
- area with substrate EDLYFQS: 0.121
- area with substrate EILYFQS: 0.0918
- area with substrate ELLYFQS: 0.0726
- area with substrate EMLYFQS: 0.12
- area with substrate EQLYFQS: 0.0831
- area with substrate ERLYFQS: 0.0971
- area with substrate ESLYFQS: 0.0909
- area with substrate EVLYFQS: 0.0802
- area with substrate EWLYFQS: 0.0668

Variant: K230W
- area with substrate EALYFQS: 0.0704
- area with substrate ECLYFQS: 0.091
- area with substrate EELYFQS: 0.131
- area with substrate EHLYFQS: 0.0873
- area with substrate EILYFQS: 0.0812
- area with substrate ELLYFQS: 0.0851
- area with substrate EMLYFQS: 0.135
- area with substrate EQLYFQS: 0.0845
- area with substrate ERLYFQS: 0.0883
- area with substrate ESLYFQS: 0.131
- area with substrate EVLYFQS: 0.1
- area with substrate EYLYFQS: 0.0896

Variant: Q234R
- area with substrate EALYFQS: 0.126
- area with substrate ECLYFQS: 0.103
- area with substrate EDLYFQS: 0.115
- area with substrate EFLYFQS: 0.128
- area with substrate EILYFQS: 0.082
- area with substrate ELLYFQS: 0.0994
- area with substrate EMLYFQS: 0.0975
- area with substrate EQLYFQS: 0.118
- area with substrate ERLYFQS: 0.12
- area with substrate ESLYFQS: 0.092
- area with substrate ETLYFQS: 0.108
- area with substrate EVLYFQS: 0.15
- area with substrate EYLYFQS: 0.104

Variant: G8V
- area with substrate ECLYFQS: 0.103
- area with substrate EMLYFQS: 0.0991
- area with substrate EPLYFQS: 0.129
- area with substrate ERLYFQS: 0.0795
- area with substrate EWLYFQS: 0.0726

Variant: P9G
- area with substrate ECLYFQS: 0.103
- area with substrate EELYFQS: 0.129
- area with substrate EHLYFQS: 0.0908
- area with substrate EILYFQS: 0.0868
- area with substrate EKLYFQS: 0.0929
- area with substrate EPLYFQS: 0.0832
- area with substrate EQLYFQS: 0.115
- area with substrate ERLYFQS: 0.0817
- area with substrate ESLYFQS: 0.111
- area with substrate ETLYFQS: 0.125
- area with substrate EVLYFQS: 0.0897
- area with substrate EWLYFQS: 0.0922
- area with substrate EYLYFQS: 0.0893

Variant: P9V
- area with substrate ECLYFQS: 0.116
- area with substrate EELYFQS: 0.133
- area with substrate EGLYFQS: 0.0954
- area with substrate EILYFQS: 0.0916
- area with substrate EPLYFQS: 0.12
- area with substrate EQLYFQS: 0.169
- area with substrate ESLYFQS: 0.104
- area with substrate EVLYFQS: 0.101

Variant: S16W
- area with substrate ECLYFQS: 0.12
- area with substrate EDLYFQS: 0.14
- area with substrate EFLYFQS: 0.0986
- area with substrate EGLYFQS: 0.0947
- area with substrate EHLYFQS: 0.115
- area with substrate EILYFQS: 0.0936
- area with substrate EKLYFQS: 0.109
- area with substrate ELLYFQS: 0.0903
- area with substrate EMLYFQS: 0.161
- area with substrate EPLYFQS: 0.13
- area with substrate EQLYFQS: 0.116
- area with substrate ERLYFQS: 0.104
- area with substrate ESLYFQS: 0.128
- area with substrate EVLYFQS: 0.0927
- area with substrate EWLYFQS: 0.109

Variant: S17K
- area with substrate ECLYFQS: 0.114
- area with substrate EDLYFQS: 0.106
- area with substrate EELYFQS: 0.111
- area with substrate EFLYFQS: 0.0973
- area with substrate EGLYFQS: 0.088
- area with substrate EHLYFQS: 0.138
- area with substrate EILYFQS: 0.105
- area with substrate EKLYFQS: 0.146
- area with substrate EMLYFQS: 0.114
- area with substrate EPLYFQS: 0.0983
- area with substrate EQLYFQS: 0.136
- area with substrate ERLYFQS: 0.11
- area with substrate ESLYFQS: 0.106
- area with substrate EVLYFQS: 0.0952
- area with substrate EWLYFQS: 0.127

Variant: S17R
- area with substrate ECLYFQS: 0.107
- area with substrate EDLYFQS: 0.147
- area with substrate EFLYFQS: 0.124
- area with substrate EHLYFQS: 0.0946
- area with substrate EILYFQS: 0.113
- area with substrate ELLYFQS: 0.119
- area with substrate EMLYFQS: 0.124
- area with substrate EQLYFQS: 0.131
- area with substrate ERLYFQS: 0.119
- area with substrate ESLYFQS: 0.102
- area with substrate EVLYFQS: 0.126
- area with substrate EWLYFQS: 0.104

Variant: S17V
- area with substrate ECLYFQS: 0.105
- area with substrate EDLYFQS: 0.0933
- area with substrate EFLYFQS: 0.114
- area with substrate EHLYFQS: 0.0798
- area with substrate EILYFQS: 0.0757
- area with substrate EKLYFQS: 0.13
- area with substrate ELLYFQS: 0.0887
- area with substrate EMLYFQS: 0.102
- area with substrate EPLYFQS: 0.128
- area with substrate EQLYFQS: 0.116
- area with substrate ERLYFQS: 0.0894
- area with substrate ESLYFQS: 0.104
- area with substrate ETLYFQS: 0.117
- area with substrate EVLYFQS: 0.0929
- area with substrate EWLYFQS: 0.107
- area with substrate EYLYFQS: 0.1

Variant: I19C
- area with substrate ECLYFQS: 0.115
- area with substrate EDLYFQS: 0.13
- area with substrate EELYFQS: 0.113
- area with substrate EGLYFQS: 0.121
- area with substrate EILYFQS: 0.11
- area with substrate EKLYFQS: 0.0734
- area with substrate ELLYFQS: 0.111
- area with substrate EMLYFQS: 0.108
- area with substrate EQLYFQS: 0.126
- area with substrate ERLYFQS: 0.133
- area with substrate ESLYFQS: 0.0982
- area with substrate EVLYFQS: 0.0737
- area with substrate EWLYFQS: 0.108

Variant: C20H
- area with substrate ECLYFQS: 0.0411
- area with substrate EELYFQS: 0.0626
- area with substrate EFLYFQS: 0.051
- area with substrate EGLYFQS: 0.0494
- area with substrate EHLYFQS: 0.0524
- area with substrate EILYFQS: 0.0337
- area with substrate EKLYFQS: 0.0519
- area with substrate ELLYFQS: 0.0393
- area with substrate EPLYFQS: 0.049
- area with substrate EQLYFQS: 0.0486
- area with substrate ERLYFQS: 0.048
- area with substrate ESLYFQS: 0.0625
- area with substrate EVLYFQS: 0.0409

Variant: N24L
- area with substrate ECLYFQS: 0.112
- area with substrate EDLYFQS: 0.112
- area with substrate EGLYFQS: 0.0926
- area with substrate EHLYFQS: 0.104
- area with substrate EILYFQS: 0.113
- area with substrate EKLYFQS: 0.0994
- area with substrate ELLYFQS: 0.101
- area with substrate EMLYFQS: 0.116
- area with substrate EPLYFQS: 0.117
- area with substrate EQLYFQS: 0.101
- area with substrate ERLYFQS: 0.118
- area with substrate EVLYFQS: 0.0993
- area with substrate EWLYFQS: 0.0968

Variant: E25T
- area with substrate ECLYFQS: 0.123
- area with substrate EDLYFQS: 0.118
- area with substrate EILYFQS: 0.075
- area with substrate EKLYFQS: 0.0824
- area with substrate ERLYFQS: 0.0947
- area with substrate ESLYFQS: 0.0917
- area with substrate EVLYFQS: 0.0858
